# Source: PubChem BioAssay (NCI)
# Several values for one entry are separate records, joined by “and”; a condition that tells them apart may be missing. Equal entries are not always repeated.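 Each compound was tested at five concentrations against cells in 96-well plates for 48 hours. GI50: concentration for 50% inhibition of growth. TGI denotes the concentration required for complete inhibition of growth.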
# Test system: NCI-H322M lung
# Assay: DTP human tumour cell line panel, 48 h
SMILES,TGI,GI50
CC1OC(c2ccc3c(OCc4ccccc4)cccc3c2O)CC(OCc2ccccc2)[C@H]1OCc1ccccc1 (stereo partly specified),> 10 µM,–
O=C(Cc1ccc(F)c(Cl)c1)Nc1cc(C2(C(F)(F)F)CC2)nn1CC1CCCCC1,> 15 µM,4.06 µM
CCCC(=O)Nc1cn(COC)c(C(=O)N2C[C@@H]3C[C@]34C2=CC(=O)c2[nH]cc(C)c24)n1,33.2 µM and > 100 µM,19 µM
COC1=CC(=O)c2c(c(-c3nc(C)cs3)cn2C)C1=O,44.8 µM,–
CCCCCCCCCCCCCCCCNc1cccc2ccccc12,> 100 µM,–
Nc1ncc(-c2ccc3ncnc(Nc4ccc(F)c(Cl)c4)c3c2)cn1,7.83 µM,0.237 µM
COCC(OC)C(CC=C(C#N)C#N)OC (stereo unspecified),> 100 µM,–
COc1cc(Cl)cc(-c2nn(-c3cccc(NC(=O)c4ccc(N5CCOCC5)c(C(F)(F)F)c4)c3)cc2-c2ccncc2)c1,> 100 µM,73.7 µM
O=C(O)COc1ccccc1C(=O)Nc1ccccc1,> 100 µM,–
COC1C(OC(=S)Nc2ccccc2)c2ccccc2N1C(C)=O (stereo unspecified),> 100 µM,–
CC(C)C1=Cc2ccc3c(c2C(=O)C1=O)CCCC3(C)C,29.3 µM,–
CN(C)CCC(/C=C/c1ccccc1)=N\Nc1ccccc1,22.8 µM,–
C=C(C(=O)OCC)C(=O)OCC,> 100 µM,–
CN1C(=O)c2ccccc2NC(=O)C12O[C@@H]2c1ccccc1 (stereo partly specified),> 100 µM,–
CN1CCC(=O)/C(=C/c2ccccc2)C1,31 µM,–
O=C(O)CN1CCNCCN(CC(=O)O)CCN(CC(=O)O)CCNCC1,> 100 µM,–
CCOS(C)(=O)=O,> 100 µM,–
NS(=O)(=O)c1ccc(NC(=S)/N=C/C2=C(O)c3ccccc3C2=O)cc1,> 100 µM,–
COc1ccc(CCN(C)C2CCC(C#N)(c3ccc(OC)c(OC)c3)CC2)cc1OC (stereo unspecified),> 100 µM,–
Nc1ncn([C@@H]2O[C@H](CO)[C@@H](O)[C@H]2O)c(=O)n1,69.7 µM,0.964 µM
CN(C)C1CCN(C(=O)c2ccc(NC(=O)Nc3ccc(-c4nc(N5CCOCC5)c5cccn5n4)cc3)cc2)CC1,0.605 µM,0.0364 µM
COc1ccc(N2C(=O)CC(=O)N(NC(=O)C(C)Oc3ccccc3C)C2=S)cc1 (stereo unspecified),> 100 µM,–
O=C(Nc1cccc(Cl)c1)C(=O)C(C(=O)c1ccc2ccccc2c1)C1OC(=O)c2ccccc21 (stereo unspecified),59.6 µM,–
CC(NCCC(c1ccccc1)c1ccccc1)c1ccccc1 (stereo unspecified),15.4 µM,3.43 µM
C#CC1/C(=C\C(=O)OC)CCCC1O (stereo unspecified),> 100 µM,–
CC(C)(C)c1cc(C(P(=O)(O)O)P(=O)(O)O)cc(C(C)(C)C)c1O,> 100 µM,–

SMILES,TGI,GI50
Cc1nc(Nc2ccc(Cl)cc2)sc1C(=O)NNC(=S)NN,46.2 µM,–
C/C(C[n+]1ccccc1)=N\N=C(N)N,> 100 µM,–
Cc1nc(C)c(N2CCN([N+](=O)[O-])CC2)c(=O)[nH]1,> 100 µM,–
COC(=O)/C(=N\NC(N)=S)C(C(=O)OC)C(=O)C(=O)Nc1ccc(C)cc1 (stereo unspecified),> 100 µM,–
O=C(OC1CCC(=C2SCCCS2)[C@H]1C1SCCCS1)c1ccccc1 (stereo partly specified),> 100 µM,–
COC(=O)C(=Cc1cc(OC)c(OC)c(OC)c1-c1cc2c(cc1C1(C)OCCS1)OCO2)C(=O)OC (stereo unspecified),> 100 µM,–
c1ccc2c(OCCSCCCCCCCCCCSCCOc3cccc4ccccc34)cccc2c1,> 100 µM,–
CSc1cc(-c2cccs2)sc1-c1cc(SC)c(-c2sc(-c3sc(-c4cccs4)cc3SC)cc2SC)s1,> 100 µM,–
OC[C@H]1O[C@@H]2O[C@@](COCc3ccccc3)([C@H](OCc3ccccc3)[C@H]2O)[C@@H]1OCc1ccccc1,26.5 µM,–
CC(C)SC(=S)Sc1c(Cl)c(Cl)nc(Cl)c1Cl,28.7 µM,–
N#Cc1nn(-c2cc(=O)[nH]c3ccc(Cl)cc23)c(N)c1C#N,> 100 µM,> 100 µM
CN(C)CC[C@H](CSc1ccccc1)Nc1ccc(S(=O)(=O)NC(=O)c2ccc(N3CCN(Cc4ccccc4-c4ccc(Cl)cc4)CC3)cc2)cc1[N+](=O)[O-],> 28.5 µM,2.32 µM
COc1cc(N(CCC#N)CCC#N)ccc1/C(N=Nc1ccc(Cl)cc1)=N/NC(=O)c1cc(Br)ccc1O,> 150 µg/mL,97.8 µg/mL
O=C(O)c1ccccc1CC(Cc1ccc2c(c1)CCC2)C(=O)O (stereo unspecified),> 100 µM,–
O=C(NC[C@H](O)CN1CCc2ccccc2C1)c1cc(NC2COC2)ncn1,> 100 µM,22.7 µM
O=C1CCC2(c3ccc(Cl)cc3)Nc3cc(Cl)ccc3N12 (stereo unspecified),27.9 µM,–
CC(C)c1cc2c(c(O)c1O)[C@@]1(C(=O)O)CCCC(C)(C)[C@@H]1CC2,> 100 µM,–
COC(=O)/C=C\C(C#N)(C#N)N=Cc1ccc(C)cc1,34.9 µM,–
Cc1cc(N[C@@H]2CCC[C@H](Nc3ccnc4cc(Cl)ccc34)C2)nc(N2CCCCCC2)n1,5.72 µM,1.74 µM
COc1cc(OC)c2c(=O)cc(-c3ccc(OC)c(OC)c3OC)oc2c1,> 100 µM,–
NS(=O)(=O)c1ccc(N=Nc2c(O)c(C(=O)O)cc3ccccc23)cc1,> 100 µM,–
Nc1ccc(N=Nc2c(S(=O)(=O)O)cc3ccccc3c2S(=O)(=O)O)cc1,> 100 µM,–
O=C(Nc1cc(C(F)(F)F)cc(C(F)(F)F)c1)c1cc(Cl)ccc1O,> 3.05 µM and 10.8 µM,0.3 µM and 0.297 µM
COc1ccc(-c2nnc3n(C)c(=O)c4ccccc4n23)cc1N,> 100 µM,5.93 µM
O=[N+]([O-])C(=C(Nc1ccccc1)Nc1ccccc1)C(Cl)=C(Cl)Cl,44.2 µM,–
C[N+](C)([O-])CCOc1cc2c(c3ccccc13)-c1ccccc1C2=O,66.1 µM,–

SMILES,TGI,GI50
O=C1NC2c3c(I)sc(I)c3C(O)C2O1 (stereo unspecified),> 100 µM,–
COc1cc(OC)cc(C(=O)CC(=O)c2cc(OC)cc(OC)c2)c1,> 100 µM,–
C[C@@H]1C[C@@H]([C@@H](CC2CC(=O)NC(=O)C2)OC(=O)CC(=O)c2ccccc2)C(=O)[C@@H](C)C1,11.1 µM,0.516 µM
Cc1nnc(Nc2ccc(NC(=O)Nc3ccc(Cl)cc3)cc2)c2ccccc12,12.5 µM,3.31 µM
O=c1oc2cc(O)ccc2c(O)c1C(c1ccccc1)c1c(O)c2ccc(O)cc2oc1=O,> 100 µM,–
CCN1CN(c2ccccc2)C2(CCN(CC3COc4ccccc4O3)CC2)C1=O (stereo unspecified),> 100 µM,–
CC1(C)OC[C@@H](O)[C@H](C#N)CO1,> 100 µM,–
O=[N+]([O-])c1ccc2occ3c2c1CCC3,> 100 µM,–
COC(=O)C1CCCC2(C1)OCCO2 (stereo unspecified),> 100 µM,–
CC(O)CNC(=O)C(C)Oc1ccc(OCC2CCCCC2)cc1 (stereo unspecified),> 100 µM,–
COc1ccc2c(c1OCC(=O)O)C(=O)C(CCC(=O)O)CC2 (stereo unspecified),> 100 µM,–
O=S(=O)(O)C(CO)c1ccccc1 (stereo unspecified) (tested in a mixture with another compound),> 100 µM,–
Cc1ccc(S(=O)(=O)n2c3c(c4ccccc42)CCN2C[C@H]([C@H](C)Br)CC[C@@H]32)cc1,> 100 µM,–
COC(=O)C(Cc1ccc2c(c1)CCC2)Cc1ccc2c(c1)CCC2,> 100 µM,–
COc1cc(N=Nc2ccc(O)c3ncccc23)c2ncccc2c1,> 100 µM,7.28 µM
Cc1c2n(c(=O)[nH]c1=O)C1OC(CO)C(N=[N+]=[N-])C1O2 (stereo unspecified),> 100 µM,–
Clc1ccc(-c2nnc3sc4nc5ccccc5c-4nn23)c(Cl)c1,> 100 µM,–
O=C(c1ccco1)c1c(C(F)(F)F)nc2ccc(Cl)cc2[n+]1[O-],> 100 µM,> 100 µM
O=c1oc2ccc(-c3ccc(F)cc3F)cc2c(=O)n1-c1cccc(C(F)(F)F)c1,15.4 µM,1.46 µM
Cc1ccccc1C(=O)c1cc(O)ccc1O,> 100 µM,–
CCOC(=O)c1ccc(/C(C)=N/NC(N)=S)cc1,> 100 µM,–
COC(=O)c1ccc2c(c1)C(=O)c1c-2n(CCCN=[N+]=[N-])c(=O)c2cc(OC)c(OC)cc12,> 100 µM,> 100 µM
COc1ccc2nc3ccccc3c(NCc3ccc(F)cc3)c2c1,6.83 µM,1.75 µM
O=C1CC2(CCC(O)(c3ccc4ccccc4c3)C(C(=O)c3ccc4ccccc4c3)C2)C(=O)c2ccccc2N1 (stereo unspecified),> 100 µM,–
CN1CCN(c2ccc(Nc3cc(-c4cccc(-n5ccc6cc(C7CC7)cc(F)c6c5=O)c4CO)cn(C)c3=O)nc2)CC1,21.8 µM,5.59 µM
Cc1c(/C=N\NC(=S)NCCNC(=S)N/N=C\c2c(C)n(C)n(-c3ccccc3)c2=O)c(=O)n(-c2ccccc2)n1C,> 100 µM,–

SMILES,TGI,GI50
Oc1cc(Cl)cc2cccnc12,> 100 µM,–
O=C(Nc1cccc(C(F)(F)F)c1)c1ccc(NC2=C(Cl)C(=O)N(Cc3ccc(Cl)cc3Cl)C2=O)cc1,32.5 µM,15.3 µM
CC(C)(C)[Si](C)(C)OCC1OC(n2ccc(=O)[nH]c2=O)C(O[Si](C)(C)C(C)(C)C)/C1=C/C#N (stereo unspecified),> 100 µM,–
COc1c(O)c2c(=O)cc3c4c5c(cc(=O)c6c(O)c(OC)c(CC(C)O)c(c(c1CC(C)O)c24)c65)OCO3 (stereo unspecified),6.36 µM,–
C/C(N=NC(=S)N1CC2CCC(CC2)C1)=C1\C=CC=CN1O,97.5 µM,–
Cc1nc(N)sc1N=Nc1ccccc1Br,80.5 µM,–
COc1ccc2/c(=C/c3ccc(N(C)C)cc3)c3cc(-c4ccccc4)[n+](C)n3c2c1,1.99 µM,–
CN1CCOC1c1ccccc1O (stereo unspecified),> 100 µM,–
CC(NC(=O)Cc1ccccc1)NC(=O)C(C)C(=O)Nc1ccccc1 (stereo unspecified),> 100 µM,–
COc1ccc(-c2nc(SCC(=O)NNC(=S)Nc3ccccc3)[nH]c2-c2ccc(OC)cc2)cc1,92.6 µM,–
O=C1c2ccccc2C(=O)N1n1c(Cc2ccc([N+](=O)[O-])cc2)n[nH]c1=O,> 100 µM,–
COC(C)(C)C1(O)CC[C@@H](C)CC1=O (stereo partly specified),> 100 µM,–
O=c1c(F)cn(Cc2ccc(C34CC5CC(CC(C5)C3)C4)c(O)c2)c(=O)n1Cc1ccc(C23CC4CC(CC(C4)C2)C3)c(O)c1,30.6 µM,15.7 µM
O=C(CCn1ccnc1[N+](=O)[O-])NCCCn1ccnc1[N+](=O)[O-],> 100 µM,–
O=C(O)CCNc1ncnc2nc[nH]c12,> 100 µM,–
COC(=O)/C(C#N)=C1\N=NNN1c1ccc(OC)cc1,> 100 µM,–
CCOC(=O)C1S/C(=N\C(=N)N[N+](=O)[O-])N=C1C (stereo unspecified),> 100 µM,–
O=[N+]([O-])C(=C(Nc1cccc2cccnc12)Nc1cccc2cccnc12)C(Cl)=C(Cl)Cl,> 100 µM,–
N#CNC(=NCc1ccccc1)N(Cc1ccccc1)Cc1ccccc1,> 31.6 µM,–
Cc1c2cc[n+](C)c(C)c2cc2c1[nH]c1ccccc12,42.7 µM,–
CC(=O)ON1CCCC(P(=O)(OCCSC(=O)C(C)(C)C)OCCSC(=O)C(C)(C)C)C1=O (stereo unspecified),16.2 µM,2.06 µM
CC12CCC(=O)C[C@H]1CCC(OC=O)C2Br (stereo partly specified),> 100 µM,–
C[C@H](CCC(=O)O)[C@H]1CC[C@H]2[C@@H]3C(=O)C[C@@H]4C[C@H](O)CC[C@]4(C)[C@H]3C[C@H](O)[C@]12C,> 100 µM,–
